Reference: PubChem BioAssay AID504832 (National Center for Advancing Translational Sciences (NCATS), 2011)
About 18,000 (5.8%) of roughly 310,000 compounds were called active. The shares of active, inactive and inconclusive entries below differ from those in the screen. Calls follow the shape of the dose curve; as a rule, active = well fitted inhibition curve with a large enough effect; inconclusive = small, poorly fitted or top-dose-only effect, or another doubt; inactive = no such curve, though single readings can be large or run the other way. Potencies of inconclusive entries are left out as doubtful fits.
% is scaled to controls: 0 for no effect and ±100 for the full control effect; potency is read from the fitted curve at half-maximal effect; tags tell the direction and shape of the fitted curve.

Assay: Primary qHTS for delayed death inhibitors of the malarial parasite plastid, 48 hour incubation
Conditions: P. falciparum luciferase growth in erythrocytes; series mostly up to 28.7 µM; activity change, negative = inhibition: at the top concentration
In short: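 Read-out is firefly luciferase luminescence from an integrated reporter in P. falciparum, so falling signal marks reduced parasite growth. Infected erythrocytes were at 2% hematocrit and 0.1% parasitemia (final) in Albumax-supplemented RPMI 1640.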
For `O=Cc1ccc(Oc2ncccn2)cc1`, the Potency was inconclusive [inhibitor, full curve, poor fit].
In the case of `C[C@@H](OC(=O)N(C)Cc1ccccc1)[C@H]1O[C@]2(C)CCCC[C@H]1O2`, the “activity change, negative = inhibition” value was inactive: 23.7%.
In the case of `CCOc1ccc2c(c1)C(c1ccc(C)o1)=NNC(c1ccncc1)=N2`, the Potency was active: 1.47 µM.
With `Cc1nc2c(-c3ccccc3)c(C)nn2c(C)c1CCC(=O)N1CCOCC1` the Potency was inconclusive [inhibitor, partial curve, poor fit].
In the case of `CC(Sc1nnc(N)s1)C(=O)Nc1ccc2c(c1)OCO2` (stereo not drawn), the Potency was inconclusive [inhibitor, partial curve, poor fit].
With `CCCCCCn1c(=O)c(F)cn(Cc2ccc(OC)c([N+](=O)[O-])c2)c1=O` the Potency was inconclusive [inhibitor, single point].
With `C[n+]1ccc(/C=C/c2ccccc2O)c2ccccc21` the Potency was active: 10.4 µM.
In the case of `CN(C)c1cc(O)c(C(=S)Nc2ccccc2)c(N(C)C)c1`, the Potency was inconclusive [inhibitor, partial curve].
For `COCCNC(=O)/C(C#N)=C/c1c(N2CCCCCC2)nc2c(C)cccn2c1=O`, the Potency was inconclusive [inhibitor, single point].
With `CCNC(=O)C1CC(=O)N(Cc2ccc3c(c2)OCO3)C(=Nc2ccc(OCC)cc2)S1` (stereo not drawn) the Potency was inconclusive [inhibitor, full curve, poor fit].
For `COc1ccccc1N1CCN(Cc2cc(=O)c(OCC(=O)Nc3ccccc3)co2)CC1`, the Potency was active: 9.28 µM.
In the case of `CCCCn1c(N)c(C(=O)NCCN2CCOCC2)c2nc3ccccc3nc21`, the Potency was inconclusive [inhibitor, partial curve, poor fit].
In the case of `Cc1ccc(S(=O)(=O)NCc2ccc(C(=O)NC3CCCCC3)cc2)cc1`, the “activity change, negative = inhibition” value was inactive: -3.5%.
For `CCCc1cc(=O)[nH]c(NCCc2ccccc2)n1`, the Potency was inconclusive [inhibitor, single point].
With `CC(Sc1ccc(Cl)cc1)C(=O)Nc1ccccc1-c1ccccc1` (stereo not drawn) the Potency was active: 2.33 µM.
In the case of `O=C(Cn1cnc2c(nnn2-c2ccc(F)cc2)c1=O)N1CCCC1`, the “activity change, negative = inhibition” value was inactive: 4.01%.
With `N/C(=N\OC(=O)CCCOc1ccccc1)c1ccc([N+](=O)[O-])cc1` the “activity change, negative = inhibition” value was inactive: 15.2%.
In the case of `CS(=O)(=O)Nc1ccc(C2=NN(C(=O)c3ccco3)C(c3ccccc3F)C2)cc1` (stereo not drawn), the Potency was inconclusive [inhibitor, single point].
With `O=C1CC(SC(=Nc2ccccc2)Nc2ccccc2)C(=O)N1c1ccc(Cl)c(Cl)c1` (stereo not drawn) the Potency was inconclusive [inhibitor, single point].
In the case of `COc1ccc(Br)cc1CN(C)CC(=O)Nc1cc(Cl)ccc1Cl`, the Potency was inconclusive [inhibitor, single point].
For `COc1ccc(CC(=O)n2[nH]c(=O)cc(C)c2=O)cc1OC`, the Potency was inconclusive [inhibitor, single point].
For `CC(=O)Nc1ccc(NC(=O)CCNS(=O)(=O)c2cccc3nsnc23)cc1`, the “activity change, negative = inhibition” value was inactive: 5.12%.
For `O=C(CNC(=S)N(Cc1ccccc1Cl)C1CCCC1)NCCCN1CCOCC1`, the Potency was active: 10.4 µM.
For `Cc1cc(C)n(CCOC(=O)c2sc3ccccc3c2Cl)n1`, the “activity change, negative = inhibition” value was inactive: 30.9%.
In the case of `CCC1Oc2ccc(C)cc2N(CC(=O)N2CCCC2)C1=O` (stereo not drawn), the “activity change, negative = inhibition” value was inactive: 9.5%.
In the case of `Cc1ccc(-c2nc3ncccc3o2)cc1NC(=O)C(C)(C)C`, the “activity change, negative = inhibition” value was inactive: 2.11%.
With `Cc1nc(N2CCN(c3ccccn3)CC2)c2c(C)c(C(=O)Nc3ccc(F)cc3Cl)sc2n1` the Potency was inconclusive [inhibitor, partial curve].
With `Clc1cccc(/C=N/Nc2nc(Cl)nc3ccccc23)c1` the Potency was inconclusive [inhibitor, single point].
In the case of `O=C(Nc1cc(C(F)(F)F)ccc1Cl)C(NCc1ccccc1)c1ccccc1` (stereo not drawn), the Potency was active: 10.4 µM.
In the case of `COc1ccc(NC(=O)CN(C)C(=O)c2c(C)nn(-c3ccccc3)c2Cl)cc1`, the Potency was inconclusive [inhibitor, single point].
With `O=C(c1cc(-c2ccccc2)n[nH]1)N1CCc2c([nH]c3ccccc23)C1c1ccccn1` (stereo not drawn) the Potency was inconclusive [inhibitor, single point].
With `COc1ccccc1NC(=O)c1cccc(S(=O)(=O)N2CCN(Cc3ccccc3)CC2)c1` the Potency was inconclusive [inhibitor, single point].
For `C=CCN1C(=O)CS/C1=C(\C#N)S(=O)(=O)c1ccc(C)cc1`, the Potency was inconclusive [inhibitor, single point].
For `COc1ccc(NC(=O)C2CCCN(c3ncnc4onc(-c5ccc(F)cc5)c34)C2)cc1` (stereo not drawn), the Potency was inconclusive [inhibitor, partial curve].
For `CCOC(=O)c1cc(C#N)c(N2CCN(c3ccccn3)CC2)nc1-c1ccccc1`, the Potency was inconclusive [inhibitor, single point].
With `COc1cc(OC)c(-c2nnc(-c3ccc(OC)c(OC)c3OC)o2)cc1OC` the Potency was inconclusive [inhibitor, single point].
In the case of `Cc1ccc(C2C(S(C)(=O)=O)=C(O)C(=O)N2c2ccccc2)cc1` (stereo not drawn) (tested in a mixture with another compound), the “activity change, negative = inhibition” value was inactive: 3.11%.
In the case of `CN(c1ccccc1)S(=O)(=O)c1ccc(Cl)c(C(=O)NCc2ccccc2CN2CCCC2)c1`, the Potency was inconclusive [inhibitor, partial curve, poor fit].
For `CC1CC(Nc2ccccc2)c2ccccc2N1C(=O)c1ccncc1` (stereo not drawn), the Potency was inconclusive [inhibitor, partial curve, poor fit].
With `O=C(Cc1cccs1)N1CCN(c2ccc([N+](=O)[O-])cc2)CC1` the “activity change, negative = inhibition” value was inactive: -2.35%.
With `O=C(OCC(=O)c1c[nH]c2ccccc12)c1ccc([N+](=O)[O-])s1` the Potency was inconclusive [inhibitor, single point].
In the case of `CCn1c(SCC(=O)Nc2ccc(OC)c(OC)c2)nnc1-c1c[nH]c2ccccc12`, the Potency was inconclusive [inhibitor, partial curve].
For `COc1c(C)cccc1C(=O)NC(=S)Nc1ccccc1N1CCCC1`, the Potency was inconclusive [inhibitor, partial curve].
